Screen size: about 390,000 compounds; about 1,400 (0.36%) were called active. Inconclusive results, whose numbers are uncertain, are shown with a selection of clear calls. Calls come from the whole dose curve; as a rule, active = well fitted inhibition curve with a large enough effect; inconclusive = small, poorly fitted or top-dose-only effect; inactive = no such curve, though single readings can be large or run the other way. Potencies of inconclusive entries are doubtful fits and often do not repeat.
target: Flap endonuclease 1 (Homo sapiens) (UniProt P39748); test: qHTS Assay for the Inhibitors of Human Flap endonuclease 1 (FEN1).; note: nearly all actives have a fitted effect of over 65% in size; settings: Recombinant FEN1 flap cleavage, fluorescence, 15 min; series mostly up to 114 µM; activity change, negative = inhibition: at the top concentration
Outline: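 Reaction started by adding substrate (50 nM final) to 10 nM enzyme after 15 min room-temperature compound preincubation. Reads at 0 and 15 min, with data normalized and fitted to a four-parameter Hill equation.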
% is set by controls: 0 for no effect and ±100 for the full control effect; potency is the fitted concentration of half-maximal effect; tags give direction and shape of the fitted curve.

Sequence of UniProt P39748 (P39748 whole entry, looked up): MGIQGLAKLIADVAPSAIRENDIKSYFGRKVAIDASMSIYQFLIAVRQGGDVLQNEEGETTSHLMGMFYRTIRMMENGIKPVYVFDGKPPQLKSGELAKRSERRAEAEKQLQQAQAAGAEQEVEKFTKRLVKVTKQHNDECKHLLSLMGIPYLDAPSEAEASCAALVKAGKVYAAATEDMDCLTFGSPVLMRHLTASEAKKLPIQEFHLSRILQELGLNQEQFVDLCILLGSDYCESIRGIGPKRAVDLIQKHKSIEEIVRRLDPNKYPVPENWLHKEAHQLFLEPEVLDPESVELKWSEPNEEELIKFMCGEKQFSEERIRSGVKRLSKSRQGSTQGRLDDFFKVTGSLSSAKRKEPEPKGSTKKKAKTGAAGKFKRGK

Row | SMILES | activity change, negative = inhibition | Potency
1 | Cc1ccc(C)c(CSc2nnc3[nH]c(=O)cc(C)n23)c1 | inactive: 0.712% | 
2 | CCN(CC)c1ccc2nc3ccccc3[n+](CC)c2c1 |  | inconclusive: 50.1 µM [inhibitor, partial curve]
3 | CCN(CC)CCNc1nc2cc(OC)c(OC)cc2c2nc(-c3ccccc3)nn12 |  | inconclusive: 3.98 µM [inhibitor, full curve]
4 | N#Cc1ccccc1OCc1cn(CC(=O)c2ccc(O)cc2)nn1 |  | inconclusive: 56.2 µM [inhibitor, partial curve, poor fit]
5 | CNc1cc(F)nc(F)n1 | inactive: -27.2% | 
6 | CC(=O)N/C(=C\c1ccccc1)C(=O)NCC(=O)O |  | inconclusive: 79.4 µM [inhibitor, partial curve]
7 | COc1cc2sc(-c3ccc(S(C)(=O)=O)cc3)c(C#CCO)c2cc1OC |  | inconclusive: 20 µM [inhibitor, partial curve, poor fit]
8 | CC(=O)c1ccc(Nc2cc(C)nc3c(C)cccc23)cc1 |  | inconclusive: 79.4 µM [inhibitor, partial curve, poor fit]
9 | Cc1ccc(C(=O)c2cn(CC(=O)Nc3ccc(C(C)C)cc3)c3nc(C)ccc3c2=O)cc1 | inactive: 3.45% | 
10 | COc1ccc(C(=O)NNC(=O)CN2CCC(n3nnc4cc(C(F)(F)F)ccc43)CC2)cc1 | inactive: -0.124% | 
11 | Nc1c(C(=O)NCc2ccco2)sc2nc3c(cc12)C(=O)CCC3 |  | inconclusive: 89.1 µM [inhibitor, single point]
12 | O=C(Nc1ccc(Cl)c(Cl)c1)N1CCCCCC1 |  | inconclusive: 89.1 µM [inhibitor, single point]
13 | COc1ccc(/C=C/c2ccccn2)cc1OC |  | inconclusive: 35.5 µM [inhibitor, partial curve]
14 | O=C(Nc1ccc(S(=O)(=O)Nc2ncccn2)cc1)c1ccc(S(=O)(=O)N2CCCC2)cc1 | inactive: -4.8% | 
15 | COc1ccc(/C=N/n2c(N)nc3ccccc32)cc1OC |  | inconclusive: 89.1 µM [inhibitor, partial curve, poor fit]
16 | Cc1ncc(CO)c2c1Oc1nc(-c3ccccc3F)nc(SCC(=O)N(C)c3ccccc3)c1C2 | inactive: -14.1% | 
17 | CC1=NN(c2ccccc2)C(=O)/C1=C\C=C1/N(C)c2ccccc2C1(C)C |  | inconclusive: 79.4 µM [inhibitor, partial curve]
18 | COc1ccc(OCCN2CCCC2)cc1Nc1nnc(Cl)c(Nc2ccccc2S(C)(=O)=O)n1 |  | inconclusive: 79.4 µM [inhibitor, partial curve, poor fit]
19 | O=C(Nc1ccc(Cl)c(Cl)c1)Nc1nccs1 |  | inconclusive: 89.1 µM [inhibitor, single point]
20 | O=C1c2cccc3cccc(c23)C(=O)N1CC1CCN(CC(O)COCc2ccc3c(c2)OCO3)CC1 (configuration not stated) |  | inconclusive: 56.2 µM [inhibitor, partial curve, poor fit]
21 | COc1ccc(Nc2c3c(nc4ccc(C)cc24)CCC3)cc1 |  | inconclusive: 89.1 µM [inhibitor, partial curve, poor fit]

Row | SMILES | activity change, negative = inhibition | Potency
22 | CCC(C)NC(=O)C1(NC(=O)Nc2ccccc2)CCCCC1 (configuration not stated) |  | inconclusive: 89.1 µM [inhibitor, single point]
23 | CC(=O)Nc1cc(NC(C)=O)cc(C(=O)N2CCCC3CCCCC32)c1 (configuration not stated) | inactive: -19.7% | 
24 | N#Cc1c(-c2ccccc2)cc(-c2ccccc2)nc1SCC(O)CS(=O)(=O)Cc1ccc(Cl)cc1 (configuration not stated) |  | inconclusive: 89.1 µM [inhibitor, partial curve, poor fit]
25 | O=C(Nc1ccc(S(=O)(=O)Nc2nccs2)cc1)c1cc(-c2ccncc2)nc2ccccc12 |  | inconclusive: 50.1 µM [inhibitor, partial curve, poor fit]
26 | CCCN(CCC)CCCNC(=O)c1cc2c(=O)n(C)c3ccccc3c2s1 | inactive: -15.3% | 
27 | Cn1c(=O)c([N+](=O)[O-])c(Oc2ccccc2)c2ccccc21 |  | inconclusive: 11.2 µM [inhibitor, full curve]
28 | CCCS(=O)(=O)Nc1ccc(Nc2c3ccccc3nc3ccccc23)c(OC)c1 |  | inconclusive: 44.7 µM [inhibitor, partial curve]
29 | COc1ccc(NC(=O)c2ccc(-c3ccc([N+](=O)[O-])cc3)o2)cc1OC |  | inconclusive: 63.1 µM [inhibitor, partial curve, poor fit]
30 | Cc1ccc(S(=O)(=O)N2CCN(Cc3ccccc3Cl)CC2)cc1 |  | inconclusive: 79.4 µM [inhibitor, partial curve]
31 | N#Cc1nc(-c2cccs2)oc1NCCN1CCOCC1 |  | inconclusive: 89.1 µM [inhibitor, partial curve, poor fit]
32 | CC(=O)N1CC=C2C(C#N)=C(N)C(C#N)(C#N)[C@H](c3ccoc3)[C@H]2C1 | inactive: -3.42% | 
33 | Cc1cccc(CC(=O)NCC(=O)NCc2cc(=O)n(C)c(=O)n2C)c1 |  | inconclusive: 100 µM [inhibitor, single point]
34 | Cc1ccc(CSc2cn(CC(=O)N3CCCCCC3)c3ccccc23)cc1 | inactive: -11.9% | 
35 | Cc1cc(=O)n2c3ccccc3n(CC(O)CN3CCN(Cc4ccccc4)CC3)c2c1C#N (configuration not stated) |  | inconclusive: 70.8 µM [inhibitor, partial curve, poor fit]
36 | CCN(CC)c1ccc(N=Cc2ccc(N(CC)CC)cc2O)cc1 |  | inconclusive: 1.78 µM [inhibitor, partial curve, poor fit]
37 | COc1ccc(-c2csc(NC(=O)Cc3ccccc3F)n2)c(OC)c1 |  | inconclusive: 89.1 µM [inhibitor, partial curve, poor fit]
38 | COc1cccc(/C(O)=C/C(=O)C(=O)Nc2ccc(S(=O)(=O)NC(C)=O)cc2)c1 |  | inconclusive: 39.8 µM [inhibitor, partial curve]
39 | COc1ccc(NC(=O)CN(C)C(=O)c2cc3c(s2)CCC3)cc1 |  | active: 25.1 µM
40 | N#C/C(=C\c1ccccc1OCc1ccc(C(=O)O)cc1)C(=O)Nc1ccc(O)cc1 | inactive: -9.19% | 
41 | O=[N+]([O-])c1cccnc1N1CCC(c2cc(-c3ccc(Cl)cc3Cl)n[nH]2)CC1 | inactive: -15.5% | 
42 | N=C1/C(=C\c2ccc(OC(=O)c3ccco3)cc2)C(=O)N=C2SC(N3CCCCC3)=NN12 |  | inconclusive: 28.2 µM [inhibitor, partial curve, poor fit]

From PubChem BioAssay AID588795 (National Center for Advancing Translational Sciences (NCATS), 2011)
